Data published in PMC9911399, “Two distinct binding modes provide the RNA-binding protein RbFox with extraordinary sequence specificity”.
Substitutions are numbered along the chain they refer to; changes in the protein carry UniProt numbers. Some of the results follow.

B1: GAAAAAG (DNA:RNA)
RNA: GGGAGACCGGAAUUCAGAUUGUCCGAAAAAGUUAAAUCCCGUCGUAGCCACCA
DNA 1: CAATCTGAATTCCGGTCTCCC
DNA 2: TGGTGGCTACGACGGGATT
B2: AUGAUGG (DNA:RNA)
RNA: B1 RNA with G25A, A26U, A27G, A29U, A30G
DNA 1: CAATCTGAATTCCGGTCTCCC
DNA 2: TGGTGGCTACGACGGGATT
B3: CCGCAUA (DNA:RNA)
RNA: B1 RNA with G25C, A26C, A27G, A28C, A30U, G31A
DNA 1: CAATCTGAATTCCGGTCTCCC
DNA 2: TGGTGGCTACGACGGGATT
B4: CACCGCA (DNA:RNA)
RNA: B1 RNA with G25C, A27C, A28C, A29G, A30C, G31A
DNA 1: CAATCTGAATTCCGGTCTCCC
DNA 2: TGGTGGCTACGACGGGATT
B5: UAAUGUA (DNA:RNA)
RNA: B1 RNA with G25U, A28U, A29G, A30U, G31A
DNA 1: CAATCTGAATTCCGGTCTCCC
DNA 2: TGGTGGCTACGACGGGATT
B6: GCAAUUA (DNA:RNA)
RNA: B1 RNA with A26C, A29U, A30U, G31A
DNA 1: CAATCTGAATTCCGGTCTCCC
DNA 2: TGGTGGCTACGACGGGATT
B7: CCGGUGU (DNA:RNA)
RNA: GGGAGACCGGAAUUCAGAUUGUCCCCGGUGUUUAAAUCCCGUCGUAGCCACCA
DNA 1: CAATCTGAATTCCGGTCTCCC
DNA 2: TGGTGGCTACGACGGGATT
B8: UUAGACA (DNA:RNA)
RNA: B1 RNA with G25U, A26U, A28G, A30C, G31A
DNA 1: CAATCTGAATTCCGGTCTCCC
DNA 2: TGGTGGCTACGACGGGATT
B9: AUAGAGA (DNA:RNA)
RNA: B7 RNA with C25A, C26U, G27A, U29A, U31A
DNA 1: CAATCTGAATTCCGGTCTCCC
DNA 2: TGGTGGCTACGACGGGATT
B10: CCUGAAU (DNA:RNA)
RNA: B7 RNA with G27U, U29A, G30A
DNA 1: CAATCTGAATTCCGGTCTCCC
DNA 2: TGGTGGCTACGACGGGATT
B11: AAUGCUU (DNA:RNA)
RNA: B7 RNA with C25A, C26A, G27U, U29C, G30U
DNA 1: CAATCTGAATTCCGGTCTCCC
DNA 2: TGGTGGCTACGACGGGATT
B12: AAUAAUU (DNA:RNA)
RNA: B1 RNA with G25A, A27U, A30U, G31U
DNA 1: CAATCTGAATTCCGGTCTCCC
DNA 2: TGGTGGCTACGACGGGATT
B13: UUGCGAG (DNA:RNA)
RNA: B1 RNA with G25U, A26U, A27G, A28C, A29G
DNA 1: CAATCTGAATTCCGGTCTCCC
DNA 2: TGGTGGCTACGACGGGATT
B14: CCGGAUG (DNA:RNA)
RNA: B7 RNA with U29A, G30U, U31G
DNA 1: CAATCTGAATTCCGGTCTCCC
DNA 2: TGGTGGCTACGACGGGATT
B15: CCGCAUU (DNA:RNA)
RNA: B7 RNA with G28C, U29A, G30U
DNA 1: CAATCTGAATTCCGGTCTCCC
DNA 2: TGGTGGCTACGACGGGATT
B16: GCUCUCU (DNA:RNA)
RNA: B7 RNA with C25G, G27U, G28C, G30C
DNA 1: CAATCTGAATTCCGGTCTCCC
DNA 2: TGGTGGCTACGACGGGATT
B17: AGGACGA (DNA:RNA)
RNA: B7 RNA with C25A, C26G, G28A, U29C, U31A
DNA 1: CAATCTGAATTCCGGTCTCCC
DNA 2: TGGTGGCTACGACGGGATT
B18: GUGUUAG (DNA:RNA)
RNA: B1 RNA with A26U, A27G, A28U, A29U
DNA 1: CAATCTGAATTCCGGTCTCCC
DNA 2: TGGTGGCTACGACGGGATT
B19: UCAAGCC (DNA:RNA)
RNA: B1 RNA with G25U, A26C, A29G, A30C, G31C
DNA 1: CAATCTGAATTCCGGTCTCCC
DNA 2: TGGTGGCTACGACGGGATT
B20: UCCUAUU (DNA:RNA)
RNA: B7 RNA with C25U, G27C, G28U, U29A, G30U
DNA 1: CAATCTGAATTCCGGTCTCCC
DNA 2: TGGTGGCTACGACGGGATT
B21: AACGCUG (DNA:RNA)
RNA: B1 RNA with G25A, A27C, A28G, A29C, A30U
DNA 1: CAATCTGAATTCCGGTCTCCC
DNA 2: TGGTGGCTACGACGGGATT
B22: GCUCAAG (DNA:RNA)
RNA: B1 RNA with A26C, A27U, A28C
DNA 1: CAATCTGAATTCCGGTCTCCC
DNA 2: TGGTGGCTACGACGGGATT
B23: CGUCGUU (DNA:RNA)
RNA: B7 RNA with C26G, G27U, G28C, U29G, G30U
DNA 1: CAATCTGAATTCCGGTCTCCC
DNA 2: TGGTGGCTACGACGGGATT
B24: UCGCCGC (DNA:RNA)
RNA: B7 RNA with C25U, G28C, U29C, U31C
DNA 1: CAATCTGAATTCCGGTCTCCC
DNA 2: TGGTGGCTACGACGGGATT
B25: UACGGCU (DNA:RNA)
RNA: B7 RNA with C25U, C26A, G27C, U29G, G30C
DNA 1: CAATCTGAATTCCGGTCTCCC
DNA 2: TGGTGGCTACGACGGGATT
B26: UGAGAGC (DNA:RNA)
RNA: B7 RNA with C25U, C26G, G27A, U29A, U31C
DNA 1: CAATCTGAATTCCGGTCTCCC
DNA 2: TGGTGGCTACGACGGGATT
B27: AUUGAUA (DNA:RNA)
RNA: B7 RNA with C25A, C26U, G27U, U29A, G30U, U31A
DNA 1: CAATCTGAATTCCGGTCTCCC
DNA 2: TGGTGGCTACGACGGGATT
B28: AGAAUCA (DNA:RNA)
RNA: B1 RNA with G25A, A26G, A29U, A30C, G31A
DNA 1: CAATCTGAATTCCGGTCTCCC
DNA 2: TGGTGGCTACGACGGGATT
B29: AGUUCGU (DNA:RNA)
RNA: B7 RNA with C25A, C26G, G27U, G28U, U29C
DNA 1: CAATCTGAATTCCGGTCTCCC
DNA 2: TGGTGGCTACGACGGGATT
B30: ACACGCC (DNA:RNA)
RNA: B7 RNA with C25A, G27A, G28C, U29G, G30C, U31C
DNA 1: CAATCTGAATTCCGGTCTCCC
DNA 2: TGGTGGCTACGACGGGATT
B31: UAGCGCA (DNA:RNA)
RNA: B7 RNA with C25U, C26A, G28C, U29G, G30C, U31A
DNA 1: CAATCTGAATTCCGGTCTCCC
DNA 2: TGGTGGCTACGACGGGATT

Target: T1, RBFOX1 RRM (Homo sapiens, UniProt Q9NWB1 109-208)
T1 sequence: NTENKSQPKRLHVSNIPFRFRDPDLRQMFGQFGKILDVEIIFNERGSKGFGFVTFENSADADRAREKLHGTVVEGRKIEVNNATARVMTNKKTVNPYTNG
Experiment: EMSA; HiTS-Eq, 1 nM pool, 10 min; buffer printed only for the single-RNA assays: 10 mM Tris pH 7.5, 150 mM NaCl, 3.4 mM EDTA, 0.001% NP-40, 30 C
Conditions: tags: His6 N-terminal (pET28a); label: 5' 32P
Method in brief: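 Purified RbFox RRM, wild type or mutant, was incubated for 10 min in 50 µL with 1 nM of a 5′-radiolabelled RNA pool carrying 7 randomized nucleotides, whose flanks were annealed to DNA oligonucleotides, over a series of increasing protein concentrations. Unbound RNA was resolved on 8% native PAGE, cut out, reverse-transcribed, barcoded by PCR and sequenced on an Illumina HiSeq 2500. Relative association constants were derived from changes in read counts for each RNA species versus the control reaction and normalised to the cognate motif.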

Binder | binding signal
B1 | 0.00328 KA relative to UGCAUGU
B2 | 0.0132 KA relative to UGCAUGU
B3 | 0.00403 KA relative to UGCAUGU
B4 | 0.00871 KA relative to UGCAUGU
B5 | 0.0139 KA relative to UGCAUGU
B6 | 0.00326 KA relative to UGCAUGU
B7 | 0.0133 KA relative to UGCAUGU
B8 | 0.00332 KA relative to UGCAUGU
B9 | 0.00472 KA relative to UGCAUGU
B10 | 0.00741 KA relative to UGCAUGU
B11 | 0.00981 KA relative to UGCAUGU
B12 | 0.00136 KA relative to UGCAUGU
B13 | 0.0151 KA relative to UGCAUGU
B14 | 0.00955 KA relative to UGCAUGU
B15 | 0.0137 KA relative to UGCAUGU
B16 | 0.0104 KA relative to UGCAUGU

Binder | binding signal
B17 | 0.0223 KA relative to UGCAUGU
B18 | 0.0132 KA relative to UGCAUGU
B19 | 0.00513 KA relative to UGCAUGU
B20 | 0.00283 KA relative to UGCAUGU
B21 | 0.00777 KA relative to UGCAUGU
B22 | 0.0107 KA relative to UGCAUGU
B23 | 0.0131 KA relative to UGCAUGU
B24 | 0.012 KA relative to UGCAUGU
B25 | 0.0135 KA relative to UGCAUGU
B26 | 0.0225 KA relative to UGCAUGU
B27 | 0.00614 KA relative to UGCAUGU
B28 | 0.00374 KA relative to UGCAUGU
B29 | 0.0166 KA relative to UGCAUGU
B30 | 0.00554 KA relative to UGCAUGU
B31 | 0.018 KA relative to UGCAUGU
